# Test results taken from PMC4336329 (PLoS ONE, 2015).
# Hit rate of the full screen: of about 310,000 compounds, about 14,000 (4.5%) showed an effect of 50% or more. Effects have a minus sign here. The list shows a part of the results.
# Biological target: human ether-à-go-go-related gene (hERG) potassium channel (human, UniProt Q12809)
# Experiment: primary screen, population patch clamp on CHO cells stably expressing hERG
# 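Also: peak tail current of the secondary pulse compared with the same well before compound.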
# human ether-à-go-go-related gene (hERG) potassium channel, sequence (Q12809 whole entry, looked up): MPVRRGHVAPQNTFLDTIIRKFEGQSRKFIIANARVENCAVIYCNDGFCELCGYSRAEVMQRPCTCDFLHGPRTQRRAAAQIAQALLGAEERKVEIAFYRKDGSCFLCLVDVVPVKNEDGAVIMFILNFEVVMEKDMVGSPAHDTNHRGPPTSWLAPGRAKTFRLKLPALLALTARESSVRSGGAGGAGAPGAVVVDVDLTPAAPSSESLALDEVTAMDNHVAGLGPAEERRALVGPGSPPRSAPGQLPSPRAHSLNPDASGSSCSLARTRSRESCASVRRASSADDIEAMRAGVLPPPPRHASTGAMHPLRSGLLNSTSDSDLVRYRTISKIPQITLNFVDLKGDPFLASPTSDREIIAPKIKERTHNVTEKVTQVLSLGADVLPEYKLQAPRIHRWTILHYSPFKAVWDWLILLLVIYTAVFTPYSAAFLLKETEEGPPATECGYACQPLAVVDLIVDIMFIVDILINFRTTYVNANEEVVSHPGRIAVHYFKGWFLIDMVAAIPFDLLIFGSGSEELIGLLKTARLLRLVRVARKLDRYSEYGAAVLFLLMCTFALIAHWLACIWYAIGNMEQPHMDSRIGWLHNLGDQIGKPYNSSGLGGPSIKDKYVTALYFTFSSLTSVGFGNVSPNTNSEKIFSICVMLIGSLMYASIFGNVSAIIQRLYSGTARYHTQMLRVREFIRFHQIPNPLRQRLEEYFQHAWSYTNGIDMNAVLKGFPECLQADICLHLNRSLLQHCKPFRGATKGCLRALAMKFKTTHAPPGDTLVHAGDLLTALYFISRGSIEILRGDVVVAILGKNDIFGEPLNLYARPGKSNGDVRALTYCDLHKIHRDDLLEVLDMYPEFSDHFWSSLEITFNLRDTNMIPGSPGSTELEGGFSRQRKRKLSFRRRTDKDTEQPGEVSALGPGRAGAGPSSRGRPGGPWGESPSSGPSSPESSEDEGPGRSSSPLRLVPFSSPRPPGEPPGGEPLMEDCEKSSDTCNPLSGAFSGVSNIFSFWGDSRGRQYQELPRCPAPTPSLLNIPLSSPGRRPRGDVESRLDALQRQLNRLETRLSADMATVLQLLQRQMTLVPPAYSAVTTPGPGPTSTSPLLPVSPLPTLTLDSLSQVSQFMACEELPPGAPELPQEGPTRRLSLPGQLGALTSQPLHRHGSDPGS
row,SMILES,"hERG current change (%, negative = inhibition) at 10uM [%]"
1,O=C(Nc1ccc(SC(F)F)cc1)C1=COCCO1,-30
2,CC(=O)C1=C(c2ccccc2)NC(=S)NC1c1ccc(O)c(O)c1 (stereo not drawn),13.8
3,Cc1nn(Cc2ccc([N+](=O)[O-])cc2)c(=O)n1-c1ccc(F)cc1,-13.9
4,O=C(NCc1nc2ccccc2[nH]1)C1=C[C@H](C2CCCCC2)C[C@H](OCc2ccc(CO)cc2)O1,5.99
5,O=C(CN(CCc1ccccc1)S(=O)(=O)c1ccc(Br)cc1)N/N=C/c1ccccc1C(=O)O,3.46
6,O=c1[nH]c(C2CCN(S(=O)(=O)c3ccccc3F)CC2)nc2c1nnn2Cc1ccc2c(c1)OCCO2,3.32
7,CCN(CC(=O)Nc1c(F)cccc1F)C(=O)c1cc([N+](=O)[O-])ccc1N1CCOCC1,-4.57
8,CCOCC(=O)Nc1cccc(NC(C)=O)c1,8.49
9,CCOC(=O)C1(Cc2ccc(OC)cc2)CCN(C(=O)c2csc(C)n2)CC1,2.99
10,CC(NC(=O)Cc1ccccc1)c1nc2ccccc2[nH]1 (stereo not drawn),5.94
11,COc1ccc(C(=O)NC(=S)NNC(=O)c2ccc(C)cc2)cc1,12
12,CCn1c(OC)nc2c1c(=O)n(C)c(=O)n2C,12.4
13,Cc1ccc(-c2csc(/C=C3\SC(C)C(=O)N3CC(=O)Nc3ccccc3F)n2)cc1 (stereo not drawn),2.01
14,CC(=O)Oc1ccc(NC(=O)CCC2CCCCC2)c(C(=O)O)c1,-1.66
15,O=C(NCCS(=O)(=O)NCc1ccccc1)c1ccc2c(c1)OCO2,-21.2
16,Cc1ccc(Nc2nc(COC(=O)COc3ccc(C=O)cc3)cs2)cc1,-5.84
17,O=C(Nc1ccc2[nH]ncc2c1)c1cccc(F)c1,17.8
18,COc1ccc2c(c1)C(=O)CC(O)(C(F)F)O2 (stereo not drawn),-3.77
19,Cn1nnc(NC(=S)NC(=O)/C=C/c2ccco2)n1,21.9
20,Cc1cccc(NC(=S)N2CCCCCC2)c1C,22
21,O=C1CSc2ccccc2N1Cc1ccc(F)cc1,-38.4
22,OC(c1cccnc1)c1cccs1 (stereo not drawn),9.41

row,SMILES,"hERG current change (%, negative = inhibition) at 10uM [%]"
1,COc1cccc(CN2CCN(Cc3cccc(F)c3)CC2)c1.O=C(O)C(=O)O,-6.47
2,CCCCc1ccc(NC(=S)N2CCN(c3ccccn3)CC2)cc1,-2.02
3,CC(C)c1nc(CN(C)C(=O)N[C@H](C(=O)N[C@@H](Cc2ccccc2)C[C@H](O)[C@H](Cc2ccccc2)NC(=O)OCc2cncs2)C(C)C)cs1,-24.5
4,COc1cc(N)n(S(=O)(=O)c2ccc(C)cc2)n1,15.4
5,CCN(CC)C(=O)c1cnn(-c2ccccc2)c1NC(=O)c1cccs1,5.94
6,CC(=O)NCCc1nc2ccccc2n1Cc1ccc(Cl)cc1,-26.6
7,O=C(O)C1C(=O)NCC1c1ccccc1 (stereo not drawn),10.6
8,COC(=O)c1sc(NC(=O)c2ccco2)nc1C,19.1
9,CCN1CCc2nc(SCC(=O)Nc3ccc(OC)cc3)c(C#N)cc2C1,-44.7
10,Cc1cccc(C2c3[nH]c4ccccc4c3CCN2C(=O)c2cc(CC(C)C)nc(C)n2)n1 (stereo not drawn),30.6
11,O=C(NCCc1ccc(Cl)cc1)c1ccc2nccnc2c1,-17.2
12,O=C(CSc1nc(CCC2CCCC2)nc2ccccc12)NCc1ccc2c(c1)OCO2,15
13,CCOc1cc(CO)ccc1OCC(=O)N1CCCCC1,6.99
14,O=C(CCN1C(=O)/C(=C/c2ccc(Cl)cc2)SC1=S)Nc1cccnc1,16
15,CCCCOC(=O)c1ccc(N)cc1,3.2
16,CS(=O)(=O)c1ccc2nc(NC(=O)c3ccc(S(=O)(=O)NCC4CCCO4)cc3)sc2c1 (stereo not drawn),41.5
17,O=C(CSc1ccsc1[N+](=O)[O-])N1CCN(c2ccc(Cl)cc2)CC1,10
18,COc1ccc(S(=O)(=O)N(CC(=O)O)Cc2ccccc2)cc1OC,12
19,Cc1cc(C)n2c(SCC(=O)N3CCN(S(=O)(=O)c4ccc(Cl)cc4)CC3)nnc2n1,11.6
20,COc1cccc(C2C3CN(C)CC=C3C(C#N)=C(N)C2(C#N)C#N)c1OC (stereo not drawn),-14.2
21,Cc1ccc(NC(=O)CN(C)C(=O)COC(=O)c2ccc(Cl)cc2O)cc1,6.26
22,NC(=O)c1ccc(NC(=O)CCCc2nc(-c3ccccc3Cl)no2)cc1,18.4

row,SMILES,"hERG current change (%, negative = inhibition) at 10uM [%]"
1,COc1ccnc(N2CCN(c3ccc(Cl)cc3)CC2)c1C#N,16
2,Cc1ccoc1C(=O)N1CCCC(CCC(=O)N2CCN(c3ccccn3)CC2)C1 (stereo not drawn),-15.2
3,COC(=O)c1ccc(C(=O)OC)c(NC(=O)COC(=O)CC2CC3CCC2C3)c1 (stereo not drawn),-12.1
4,CCc1ccc(OCC(=O)N/N=C(\C)c2ccc(O)cc2O)cc1,4.55
5,COc1ccc(Cl)cc1NC(=O)NCCN1CCCCC1,-1.07
6,O=C(Nc1ccccc1)c1ccc(S(=O)(=O)NCc2ccco2)cc1,-11.6
7,CC1=C(C)CC(C(=O)NNC(=O)c2ccccc2)C(C(=O)O)C1 (stereo not drawn),18
8,COc1cccc(C(C)N(C)Cc2nc(-c3ccoc3)oc2C)c1 (stereo not drawn),-39.1
9,O=c1c2ccccc2nc(SCc2cc(F)cc3c2OCOC3)n1Cc1ccco1,-2.26
10,COc1ccc(S(=O)Cc2ccc(C(=O)N3CCN(C(=O)c4ccco4)CC3)o2)cc1 (stereo not drawn),7.47
11,COCCNC(=O)CSc1nnc(-c2ccccc2)c(-c2ccccc2)n1,-4.64
12,c1ccc2oc(-c3csc(N4CCOCC4)n3)cc2c1,22.6
13,COc1ccc(OC)c(S(=O)(=O)Nc2cccc(O)c2)c1,0.585
14,COc1ccc(C(=O)c2ncc(C(F)(F)F)cc2Cl)cc1,3.33
15,CCc1c(C)nc2c(-c3ccccc3)c(C)nn2c1Nc1ccc(NC(C)=O)cc1,-2.44
16,Cc1ccc(C(C)NC(=O)c2cccs2)cc1 (stereo not drawn),3.58
17,NNc1nc(Nc2ccccc2)nc(N2CCCCC2)n1,5.95
18,C=CCN(CC(=O)NCc1ccc(OC)cc1)C(=O)c1csnn1,-16.7
19,Cc1ccc(CC(=O)NCCCn2ccnc2)cc1,21.5
20,Cc1ccc(NC(=O)COC(=O)c2ccc(Cl)cc2)cc1S(=O)(=O)N(C)C,-7.27
21,O=C(O)CC1c2ccccc2CCN1S(=O)(=O)c1ccc(F)cc1 (stereo not drawn),8.32
22,O=C(C1CC1)N1CCc2cc(S(=O)(=O)N(CCO)Cc3ccccc3)ccc21,-10.4

row,SMILES,"hERG current change (%, negative = inhibition) at 10uM [%]"
1,CCn1c(SCC(=O)Nc2nc(-c3ccc(C)cc3)cs2)nnc1-c1ccccc1,-1.44
2,CCOC(=O)C1CCCN(c2c(N3CCC(N4CCCCC4)CC3)c(=O)c2=O)C1 (stereo not drawn),-0.665
3,COc1ccc(NC(=O)Nc2ccc(F)cc2)cn1,27.7
4,COc1ccc2[nH]c(C)c(C(=O)CN(C)CC3OCCO3)c2c1,5.17
5,CCN1CCN(C(=O)c2ccc(N3CC4CC(C3)c3cccc(=O)n3C4)c([N+](=O)[O-])c2)CC1 (stereo not drawn),40.6
6,CCCCCC(=O)NN1C(=S)N(c2ccc(OC)cc2)C(=O)C1CC(=O)Nc1ccccc1 (stereo not drawn),-2.92
7,O=C(NC(Cc1ccccc1)C(=O)O)/C(=C\c1ccco1)NC(=O)c1ccc(Br)cc1 (stereo not drawn),-0.803
8,N#CCOc1ccc2oc(-c3ccco3)cc(=O)c2c1,-9.42
9,CCOC(=O)C1(Cc2cccc(Cl)c2)CCCN(C(=O)c2cccnc2)C1 (stereo not drawn),5.62
10,Cc1cc2n(n1)C(c1ccc(O)cc1)Nc1ccccc1-2 (stereo not drawn),-9.37
11,COc1ccc(NC(=O)CSc2nnc(-c3ccccc3C)n2N)cc1OC,-11.7
12,COCCCNC(=O)c1ccc(CS(=O)(=O)c2ccccc2OC)o1,6.84
13,COc1ccc(S(=O)(=O)N(CC(=O)NCc2ccco2)C2CCCCC2)cc1OC,-44.9
14,COc1ccc(-n2c(O)c(C(C)=NCC3CCCO3)c(=O)[nH]c2=O)cc1 (stereo not drawn),15.2
15,O=C(CSc1nnc(COc2ccccc2)n1Cc1ccco1)Nc1ccc2c(c1)OCCO2,14.1
16,COc1ccc(/C=C(/NC(=O)c2cccs2)C(=O)Nc2ccc(C)cc2)cc1OC,5.22
17,CCC(=O)c1cc2c(cc1NC(=O)c1ccccc1)OCCO2,15.6
18,COc1ccc(OCC(=O)Nc2ccccc2OC)cc1,-5.3
19,COc1cc(C=O)ccc1OCCOCCOc1c(C)cc(Cl)cc1Cl,0.67
20,O=c1c(-c2ccc3c(c2)OCCO3)coc2cc(OC3OC(CO)C(O)C(O)C3O)ccc12 (stereo not drawn),12.2
21,CCCn1c(C)cc(C(=O)COc2ccc(S(=O)(=O)N(CC)CC)cc2[N+](=O)[O-])c1C,-5.52
